The list shows a part of the results. At the low end of the ranking the order means little. Measured with an extract: partners may take part in the binding.

The results in this text go back to PMC10726135.

The target of the test is T1, HNF4alpha8 (COS-7 nuclear extract) (UniProt P41235-5).
T1 sequence: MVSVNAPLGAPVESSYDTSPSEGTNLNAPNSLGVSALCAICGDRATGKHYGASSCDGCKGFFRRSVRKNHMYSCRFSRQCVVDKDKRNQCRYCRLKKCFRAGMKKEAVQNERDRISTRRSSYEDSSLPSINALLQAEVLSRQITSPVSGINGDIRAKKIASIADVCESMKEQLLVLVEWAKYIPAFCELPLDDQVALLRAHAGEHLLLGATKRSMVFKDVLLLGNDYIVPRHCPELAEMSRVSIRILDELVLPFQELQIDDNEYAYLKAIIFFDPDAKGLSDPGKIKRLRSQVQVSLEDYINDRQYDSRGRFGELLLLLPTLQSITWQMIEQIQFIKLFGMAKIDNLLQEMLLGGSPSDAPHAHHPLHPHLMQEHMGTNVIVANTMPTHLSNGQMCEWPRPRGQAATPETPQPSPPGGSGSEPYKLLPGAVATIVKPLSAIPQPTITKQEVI
Description: protein-binding microarray. The following applies: COS-7 nuclear extract on double-stranded Agilent 4x180k PBM; binding buffer, salt, pH and temperature not given; high values mean tight binding; double strand, one strand shown; sequences stand for … in …GCCTAGGGAGATTAGAGTATCGGTCGA
In the case of AAGGACTGAGATAAGAGAAGGGGTCAGGTA, the binding signal (log2 normalized intensity) came to 2.22. The figure for GCCCTCAGGGAGCTCCAGCACTGGGGGACC is -1.35; for ATCATCACGGTGGACATTGTCCAAGGGCTG it is 1.84; for AAGTCCATCTGGGCAAGGTGTCAACCTTCA it is 1.01.

Regarding AAAGGTCATATCCAAAATATTTGCAGTGAG, the binding signal (log2 normalized intensity) stood at 2.09. The figure for CCCAATGCAGTACTATGCAATAACCAGGGA is -1.35. Then ACAGTTCGAACAGTTGGCCACCTTTGGCCG, with 4.84; and TAACTGAAAGTCATGCTGAAGTACAGATTC, with 0.371; and AATCTTCAGCTGCCTTTTGCCAGGCTACAG, with -1.28. With CAAGATTTGGTGTTACCTTTGGACTGTCCT, the binding signal (log2 normalized intensity) stood at 5.22. Then TCCTACAAGGGAGATAAACTTTATCTCCCT, with -1.19. Then AAGGTAAGTGACCCTGGTCTTTGCCCTTTC, with 5.35; and GATGATCAGTAAGGAGAGGGGGCGGGGAGA, with -1.32; and TACTCAATAACCACATGAATACACATAATG, with -1.46.

In the case of CAATCTTGAGATAAGTACACAAAAGAGCTT, the binding signal (log2 normalized intensity) was -1.4.

As to GCTGTGCCTGAATGCAGGGAGCAGAGTCCC, the binding signal (log2 normalized intensity) came to 0.42. Consider GTCTCCAGGCAAACTACAGTTTCTGTTTTC, for which the binding signal (log2 normalized intensity) is -0.341.

In the case of ATCTTACTTTGAGGTGTTCTCTGGGGTTAG, the binding signal (log2 normalized intensity) came out at 2.03. Then GGGTGACCAGTGGACCATGAGAAACATCCA, with -1.21; and ACTGAAAGCTATCCCTCCATATTGCAGACA, with -0.946; and TTCAGCTTATAAATCTTCAACTGGAGGATA, with 0.00305.

With CTACAGGGTATGAATTTAACCTTTGCTCTC, the binding signal (log2 normalized intensity) is 7.57.

As to CTGCCTCCAGCTGTTGGTGACTGACCCTGA, the binding signal (log2 normalized intensity) was 3.92. Then GAGGCAGGATGACTGCTTGAGTCCAGGAGT, with -0.182; and TGGTACTGGACATGGTCTAAGAAAAGCAGG, with -1.25; and ATTTTGGGGCTGTATTTACATGGATTAGTC, with 1.41.

Turning to ACATGTCATTGGCAGAAGGTGGAACAGTCA, the binding signal (log2 normalized intensity) was 0.54. Then AAGGCTCTCTGTTGACCACCTGCCCCAGGA, with 1.54. AGATTCCAGAGGGAGGGAGGGTGGAGGAAC: the binding signal (log2 normalized intensity) is -1.39. The figure for AGTTTTTGCCCTTAAGCAGCATGTAGTTTA is 0.895; for TCTTGGAGAGAAAAAATCAGAGAGCAAAGG it is 2.24. For AGGAACAGGCCCCAGGGACTTTGGCCTTAC, the binding signal (log2 normalized intensity) stood at 5.97. With CTAAGCTTGTAGACCAAGGAGGCCTCTTCC, the binding signal (log2 normalized intensity) was -1.31. Then GTCTCCTTTCAAGGCAGATTTCTGTCTTTG, with 0.348; and TATCAGTGTTGACCTCTGGACCTCATCTTC, with 6.23. Then ACGTGCAGCAATAGGTCAGAGGACACCCGG, with -1.09.

Consider AGACTGCCATTCCAGAAGTAGGATGGGGAG, for which the binding signal (log2 normalized intensity) was -1.27. Take AAGGGTCAATGTGATCAGGTGTGGGCATTA: the binding signal (log2 normalized intensity) stood at 1.3.

CCAGGCAATCAGCCTTAGGTATGCCCCATG: the binding signal (log2 normalized intensity) worked out at 0.86. Take TCCCCCAACCCCACCTTCATTCTTCATGGG: the binding signal (log2 normalized intensity) stood at 3.29. The figure for AGAGCAAAGGTGATCTGCTGGAATGAAGAC is 0.237; for ACCCAGAGAATGCTAGACAAGGGAATTACT it is -1.31.

Take GCTTTCTATTCAGACCTTCAACTATTTGGA: the binding signal (log2 normalized intensity) stood at 1.22. Consider AACTTCTCACCTTCAGATGCCATGTCTAAA, for which the binding signal (log2 normalized intensity) came out at 0.377. The figure for TGCAATGCGGAATGACATTCAGCAACTGGG is -1.38; for AGCTTGAATCACTCACTGACCTCTTTTGGA it is 3.2. Then CAGAGAGGTCAGCAAATGTGGACACTTTGA, with 1.94; and AAATGAAGTGGTATCCTGCAGTCAGTCTGA, with -0.508; and TCTCACCAGACCAAGAGCTTAACCTTTGCC, with 3.84.

Regarding ATGATAACCCCCGTCACTGCAAGGCAAACA, the binding signal (log2 normalized intensity) was found to be 3.78.

For the sequence CCTAAGCCTTATTATCTGCTTTTATGACCT, the binding signal (log2 normalized intensity) was 3.51. Then AACTATGCAGTGTCCATGGTGACCATGTGA, with 1.71; and AAATATGTTCCACCCAGGGTGGCAGGCTCT, with -0.847. Consider CTCAGAGCATATGTTGACCCGAGTGCCCTT, for which the binding signal (log2 normalized intensity) amounted to 5.21. The figure for CTGTTTGACCAAAGCTACTCATCATGAACT is 0.948; for ATTTGGCCACATCCTGTCTCCTTTAACCTT it is 2.34. Then TCACAGAGCAGAGAAAATTCTAGATAACTC, with -1.44; and AGGACTCAATGATACCATCAGATACCTACT, with -1.34.

In the case of GGTTTATTTTTATCTGTTTATTTTGCAATT, the binding signal (log2 normalized intensity) is 1.33. The figure for ACACCGTCCAGAGGCTCCAAAGGACACTCC is -1.28. Then AGGGAGGCCTAGACACAGACTCAAGTGAGG, with -1.31; and ACACAGGCGACCTTCGCTCGGCTCGCTCTC, with 2.9. With ATGGCTGAGCTGTAAGGACATAAGCACTGA, the binding signal (log2 normalized intensity) is -1.35. Then GGAGGAGACAGCTACGGAATGCTTCCTGGA, with -1.42; and GTCTCAAAGTTCACCACTTTTGCAATGTTT, with 1.92. Regarding TGCTCGGAACACGAGGTGAGAGGCGGAACA, the binding signal (log2 normalized intensity) was found to be 0.629. For the sequence GTAAAGGTGGTTTGGGTAATAACATGTAAT, the binding signal (log2 normalized intensity) is 1.35. As to GGGTGCCTGATAATGACTCTTGAACCACAG, the binding signal (log2 normalized intensity) came to 1.58.

With TTCTTTGTACCGTATTTCAGACCACCCAGT, the binding signal (log2 normalized intensity) was found to be 2.4. For the sequence AGGTCAAAGTGCAACTACAAGGAGCAGCCT, the binding signal (log2 normalized intensity) worked out at 4.08. For TTGACCTTCAGCATCTTCAACTGTGTGAGC, the binding signal (log2 normalized intensity) turned out to be 2.59.

Turning to GAAATGGGACCCAACTTTTGCTCTCTGGGA, the binding signal (log2 normalized intensity) is -1.3. The figure for TTCCCTAAGATTCTGGTCAAAGGTCAATGA is 8.22; for GACCTAGGTGAGCAGGCAGAGGTCAATGTC it is 3.65; for TTGCACCTGGGCTGGAAAGGCCACCACAAA it is -1.35. Take ACAGTTTTGTGTGTTTAATGTTTTCATTCT: the binding signal (log2 normalized intensity) amounted to 1.81. Take TGGGACCAAAGGTGAAGGGGTCACCTCGCT: the binding signal (log2 normalized intensity) is 3.63. The figure for GAAAGCAAGGGCCAGATCAAAGGCTTCTAG is -1.36; for TCCGGGCGATCCGGGCTCCGGGCGCCGCGC it is -1.21. The figure for CACAAAGCTTGGGTTCACATTCCAGCTCTG is 0.776.

On to TCTTCGAAGACACAAAGCTTGGGTTCACAT, for which the binding signal (log2 normalized intensity) was 2.32.

Take ACTTATCTCAGCCTGGCTAAAACCCTGGCC: the binding signal (log2 normalized intensity) is -1.45. On to ACACACACACACACAGCTTGGAGCTCCTTG, for which the binding signal (log2 normalized intensity) was -1.28.

Regarding GTCGCTTGCCAGTATGCCACTGGTTAGTTC, the binding signal (log2 normalized intensity) amounted to 0.782. Then GCTGCCAAACTGCCCAGCAGAAAAGCTGTA, with -1.3; and CCCAGGTCACCCACAACCTACCCTTTGCCC, with 4.78.

As to GGCATTTCACAGAGCAAGGGTCCAGATTAG, the binding signal (log2 normalized intensity) amounted to 3.07. The figure for CAGGGAATGAGAATGGCCAGAGTTCCTGTG is -1.22. As for CCTTCATGTTTTCACCAAGAGGGAAAAGAT, the binding signal (log2 normalized intensity) is -0.605. Then GGGCCCTCTTCCAGCTGAGACAAGGTCCAG, with 2.29. The figure for ATGATCTTGCTCTCTTGTGCTCATGACAAA is 0.645; for ATCTGACCTTTGGGACATTCCCCAGGCTGC it is 3.59; for AGTCTTAACCTCCTCTGTCACGATTCTTTT it is 1.1.
